According to the supplement of paper PMC12217912:
The other results are listed elsewhere or left out. Sequences were assembled here from the parent chain. Inactive controls read about 0.05.

B1: TEV protease; numbered along this chain (parent)
chain: MGESLFKGPRDYNPISSSICHLTNESDGHTTSLYGIGFGPFIITNKHLFRRNNGTLVVQSLHGVFKVKDTTTLQQHLVDGRDMIIIRMPKDFPPFPQKLKFREPQREERICLVTTNFQTKSMSSMVSDTSCTFPSGDGIFWKHWIQTKDGQCGSPLVSTRDGFIVGIHSASNFTNTNNYFTSVPKNFMELLTNQEAQQWVSGWRLNADSVLWGGHKVFMVKPEEPFQPVKEATQL

Variants of: B1
Assay: raw area under fraction-flipped curve 0-4 h after induction (AUC4h, not background-subtracted), DNA-recorder readout of cleavage of the substrate (dimensionless); higher = more cleavage of the substrate by the protease variant
Settings: temperature: 34 °C; time window: 0-4 h after rhamnose induction
Protocol: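 In vivo DNA recorder in E. coli TOP10(DE3) ΔrhaA at 34 °C. Each TEVp single-site mutant (parent TEVp 0) is paired with a single-site variant of the 7-mer TEVs (canonical ENLYFQ|S). The substrate sits between flexible linkers in a Bxb1-sfGFP-TEVs-SsrA fusion, so cleavage stabilises Bxb1 and speeds flipping of a recombination array, read by NGS. The value is the raw area under the fraction-flipped curve over 0-4 h after rhamnose induction (AUC4h), with ≥20 reads per time point. It is not background-subtracted; inactive controls average about 0.047.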
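Note: Bxb1 expression induced with 0.2% (w/v) L-rhamnose at OD600 near 0.5, cultures sampled hourly, flipped fraction per protease–substrate barcode pair counted by paired-end Illumina sequencing.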

Variant | area with substrate ENLAFQS | area with substrate ENLCFQS | area with substrate ENLEFQS | area with substrate ENLFFQS | area with substrate ENLKFQS | area with substrate ENLNFQS | area with substrate ENLRFQS | area with substrate ENLDFQS | area with substrate ENLGFQS | area with substrate ENLQFQS
F65P | 0.0236 | 0.0603 | 0.0423 | 0.0395 | 0.0512 | 0.0668 | 0.0133 |  |  | 
K66E | 0.0498 |  | 0.0627 | 0.113 | 0.0883 |  | 0.0849 | 0.0638 | 0.0438 | 0.0633
K66Y | 0.063 | 0.0755 | 0.0592 | 0.0929 | 0.0796 | 0.0722 | 0.0807 | 0.0759 | 0.0653 | 
T70F | 0.0525 |  |  | 0.0773 | 0.0685 |  | 0.0766 |  |  | 
Q74I | 0.0482 | 0.0605 |  | 0.0642 |  |  |  | 0.0644 |  | 
Q74P | 0.0657 |  | 0.0656 |  | 0.131 |  |  |  |  | 
Q75D | 0.0373 |  |  | 0.0527 |  | 0.0654 |  | 0.054 | 0.0606 | 0.0482
H76G | 0.0893 |  |  |  | 0.0512 | 0.0494 | 0.0695 |  |  | 
L77R | 0.0584 |  | 0.0612 | 0.064 | 0.0574 |  |  | 0.0671 |  | 
V78D | 0.0658 |  | 0.058 | 0.0532 |  | 0.062 | 0.0065 | 0.047 |  | 0.0403
V78N | 0.0592 | 0.0439 |  | 0.0626 | 0.0625 |  | 0.0471 | 0.0602 |  | 
R81A | 0.0698 |  |  | 0.0676 |  | 0.0536 |  |  |  | 
R81V | 0.0667 |  |  |  | 0.0422 | 0.0668 | 0.073 | 0.0516 |  | 0.0883
D82M | 0.0594 |  | 0.0558 | 0.0494 | 0.0465 | 0.0465 |  | 0.0862 |  | 0.054
M83L | 0.0704 |  |  |  | 0.0661 |  | 0.0566 | 0.0571 |  | 
M83R | 0.0508 | 0.0555 | 0.0451 |  | 0.0735 |  |  | 0.0535 | 0.0493 | 
I84H | 0.0584 |  |  | 0.069 | 0.051 |  |  | 0.0689 | 0.044 | 
I84N | 0.059 |  | 0.048 | 0.0651 |  | 0.0561 | 0.0495 |  | 0.0327 | 
I84V | 0.0736 | 0.063 | 0.0755 | 0.107 | 0.0678 | 0.0623 |  | 0.0617 |  | 
I85H | 0.0484 |  | 0.0562 | 0.057 |  | 0.0547 | 0.0529 | 0.0683 |  | 0.0485
I86C | 0.0967 |  | 0.0562 |  |  |  |  | 0.0652 |  | 0.0625

Variant | area with substrate ENLAFQS | area with substrate ENLCFQS | area with substrate ENLEFQS | area with substrate ENLFFQS | area with substrate ENLKFQS | area with substrate ENLNFQS | area with substrate ENLRFQS | area with substrate ENLDFQS | area with substrate ENLGFQS | area with substrate ENLQFQS
R87T | 0.0524 |  |  | 0.0581 |  | 0.067 |  | 0.0665 |  | 
P89V | 0.0492 |  |  | 0.0534 | 0.0509 |  |  |  |  | 
K90M | 0.0583 | 0.0554 |  | 0.102 |  |  |  |  |  | 
D91S | 0.0731 |  | 0.0574 | 0.0793 | 0.0708 |  | 0.0718 | 0.065 |  | 
F92N | 0.0738 |  |  |  |  | 0.0641 |  | 0.0658 |  | 0.0675
P93W | 0.0712 | 0.0651 |  |  | 0.0325 |  | 0.0618 | 0.06 |  | 
Q97C | 0.103 |  |  |  | 0.0787 |  |  |  |  | 
Q97E | 0.0471 | 0.0578 | 0.0839 | 0.0711 |  | 0.0738 |  | 0.0626 |  | 
Q97L | 0.0626 |  |  | 0.0715 | 0.071 |  |  |  |  | 
Q97N | 0.0667 |  |  |  | 0.0976 | 0.0686 |  |  |  | 
Q97T | 0.0677 |  |  | 0.115 |  |  | 0.0512 |  |  | 
Q97W | 0.0553 |  |  | 0.0971 | 0.0611 | 0.0707 |  | 0.0793 |  | 
Q97Y | 0.064 |  |  | 0.091 |  | 0.034 |  |  |  | 
K98R | 0.0787 |  |  | 0.0948 | 0.0796 | 0.0684 | 0.0924 | 0.0677 |  | 
L99E | 0.0657 | 0.0772 | 0.0561 | 0.0742 |  |  | 0.0645 | 0.0467 | 0.0618 | 0.07
L99I | 0.0806 |  |  |  | 0.0834 |  |  | 0.0647 |  | 
K100D | 0.0506 |  | 0.0361 |  | 0.0644 | 0.06 | 0.0667 | 0.057 | 0.0757 | 0.0611
F101H | 0.0344 |  |  |  |  |  |  | 0.0427 |  | 0.0461
F101I | 0.0581 |  | 0.0546 |  | 0.0613 |  |  |  | 0.0752 | 
R102E | 0.0476 |  | 0.0641 | 0.0441 | 0.0447 | 0.0556 | 0.053 | 0.0509 | 0.0703 | 

Same assay, conditions: temperature: 34 °C; time window: 0-4 h after rhamnose induction

Variant | area with substrate ENLSFQS | area with substrate ENLVFQS | area with substrate ENLHFQS | area with substrate ENLIFQS | area with substrate ENLMFQS | area with substrate ENLPFQS | area with substrate ENLWFQS | area with substrate ENLLFQS | area with substrate ENLTFQS
K66E | 0.0439 | 0.0713 |  |  |  |  |  |  | 
K66Y | 0.0659 | 0.1 | 0.0629 | 0.0882 | 0.0558 | 0.0723 | 0.0938 |  | 
T70F |  |  |  |  | 0.0887 |  |  |  | 
Q74I |  | 0.075 | 0.0068 |  | 0.0482 |  |  |  | 
Q74P |  |  | 0.0635 | 0.0719 |  |  |  |  | 
Q75D | 0.0607 |  | 0.063 | 0.0547 |  |  | 0.0576 | 0.0358 | 
H76G | 0.0636 |  |  |  |  |  |  |  | 
L77R |  |  | 0.0634 |  |  |  | 0.0407 | 0.0448 | 
V78D | 0.0562 | 0.0364 | 0.0595 | 0.0639 |  |  | 0.0634 | 0.0612 | 
V78N | 0.0673 |  |  |  | 0.0463 |  | 0.0572 |  | 
R81A | 0.0594 |  | 0.0986 | 0.0621 |  | 0.0489 | 0.0591 | 0.065 | 
R81V | 0.0798 | 0.0787 | 0.0313 | 0.0634 |  | 0.0505 |  | 0.104 | 
D82M |  |  |  |  | 0.0664 |  |  |  | 
M83L | 0.0645 |  |  |  | 0.0738 | 0.0402 | 0.0625 |  | 
M83R |  |  |  |  |  | 0.0542 | 0.0485 | 0.0116 | 0.054
I84H |  |  | 0.0642 | 0.0642 |  | 0.0592 |  |  | 
I84N |  |  | 0.0559 |  |  | 0.0554 |  |  | 
I84V |  | 0.0895 | 0.0757 | 0.0795 | 0.0638 | 0.074 |  | 0.065 | 
I85H | 0.0685 | 0.0603 |  |  |  | 0.0246 |  |  | 

Variant | area with substrate ENLSFQS | area with substrate ENLVFQS | area with substrate ENLHFQS | area with substrate ENLIFQS | area with substrate ENLMFQS | area with substrate ENLPFQS | area with substrate ENLWFQS | area with substrate ENLLFQS | area with substrate ENLTFQS
I86C | 0.0618 |  | 0.0717 |  |  |  | 0.0549 |  | 
R87T |  | 0.0648 |  |  | 0.0533 |  | 0.0612 | 0.0827 | 
P89V | 0.0193 |  |  | 0.0649 |  | 0.0744 |  | 0.0507 | 0.0436
K90M |  |  |  |  |  | 0.0582 |  |  | 
D91S |  |  |  |  |  |  |  | 0.0739 | 
F92N | 0.0682 |  | 0.0583 | 0.0732 |  |  |  | 0.0642 | 
P93W |  |  | 0.0555 |  | 0.0877 |  |  |  | 
Q97E |  | 0.118 | 0.0958 |  |  | 0.0592 |  |  | 
Q97L |  |  |  |  |  | 0.0722 |  | 0.1 | 
Q97T |  |  |  |  | 0.097 |  | 0.0764 |  | 0.0666
Q97W |  | 0.12 | 0.055 |  |  | 0.0711 |  | 0.0746 | 
Q97Y |  | 0.075 |  |  |  |  |  |  | 
K98R | 0.0598 |  |  | 0.103 |  | 0.0412 | 0.0597 |  | 
L99E | 0.0539 |  | 0.06 |  |  |  |  |  | 
L99I | 0.0569 |  | 0.064 |  |  | 0.0522 |  |  | 
K100D |  | 0.0752 | 0.0623 | 0.0837 | 0.074 |  | 0.0606 |  | 
F101H |  | 0.0349 | 0.04 |  |  | 0.0743 |  |  | 
F101I |  |  | 0.0636 |  |  |  |  | 0.0126 | 
R102E | 0.0538 |  | 0.0524 |  | 0.0689 | 0.0491 |  |  | 
